# According to the supplement of paper PMC8728848:
# The list shows a part of the results.
# B1: Clec49 (Caenorhabditis elegans) (protein)
# chain: MTRLTLLLFGLLGAATAQTCNTGGIYNEQFNRCYQYFTAPAQFSFAEQQCNLLGGHLASVQNGQENALLQSNAANSFKRSNYSDYWIGATDLETSGTWKWTDPSVTFDYSNWQLGEPQSGSDCAIQDKGDGTWSAIGCTSYRPYVCVTPVIMTATCPPITTPIPTTCPTPAPCPIKQCVPSCDQGWTYFSPTDFCYRVYHGEKFNDAEASCVLLGGHLASIHSLTENTFVNNIASCGIKEGKYEHLAWIGMRKVGQDWVWTDGTPSDYFNWAPKQPDNPKKELCVQTAPDLSHDKWYENWNNLECNEVMRAYICKKASIHN
# Columns and labels:
# Assay in all cases: glycan array binding signal (z-score within array); higher = stronger binding
# Details in all cases: glycan notation: IUPAC condensed, linker removed
# [1] = target: Fuc(a1-2)[Gal(a1-3)]Gal(b1-4)GlcNAc(b1-2)Man(a1-3)[Fuc(a1-2)[Gal(a1-3)]Gal(b1-4)GlcNAc(b1-2)Man(a1-6)]Man(b1-4)GlcNAc(b1-4)[Fuc(a1-6)]GlcNAc
# How it was run: (§1)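 The Consortium for Functional Glycomics database supplied 3228 glycan arrays, of which those lacking an available protein sequence were dropped. The binding signal, a within-array Z-score, was averaged across arrays of the same protein sequence and across linkers. Negative scores can be read as non-binding.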
# [2] = target: Fuc(a1-2)[Gal(a1-3)]Gal(b1-4)GlcNAc(b1-3)GalNAc
# How it was run: as §1
# [3] = target: Fuc(a1-2)[Gal(a1-3)]Gal(b1-4)GlcNAc(b1-3)[Fuc(a1-2)[Gal(a1-3)]Gal(b1-4)GlcNAc(b1-6)]GalNAc
# How it was run: as §1
# [4] = target: Fuc(a1-2)[Gal(a1-3)]Gal(b1-4)GlcNAc(b1-6)GalNAc
# How it was run: as §1
# [5] = target: Fuc(a1-2)[Gal(a1-3)]Gal(b1-4)[Fuc(a1-3)]Glc
# How it was run: as §1
# [6] = target: Fuc(a1-2)[Gal(a1-3)]Gal(b1-4)[Fuc(a1-3)]GlcNAc
# How it was run: as §1
# [7] = target: Fuc(a1-2)[Gal(a1-3)]Gal(b1-4)[Fuc(a1-3)]GlcNAc(b1-3)GalNAc
# How it was run: as §1
# [8] = target: Fuc(a1-2)[Gal(a1-4)]Gal(b1-4)GlcNAc
# How it was run: as §1
# [9] = target: Fuc(a1-2)[GalNAc(a1-3)]Gal
# How it was run: as §1
# [10] = target: Fuc(a1-2)[GalNAc(a1-3)]Gal(b1-3)GalNAc(a1-3)[Fuc(a1-2)]Gal(b1-4)GlcNAc
# How it was run: as §1
# [11] = target: Fuc(a1-2)[GalNAc(a1-3)]Gal(b1-3)GalNAc(b1-3)Gal(a1-4)Gal(b1-4)Glc
# How it was run: as §1
# [12] = target: Fuc(a1-2)[GalNAc(a1-3)]Gal(b1-3)GlcNAc
# How it was run: as §1
# [13] = target: Fuc(a1-2)[GalNAc(a1-3)]Gal(b1-3)GlcNAc(b1-2)Man(a1-3)[Fuc(a1-2)[GalNAc(a1-3)]Gal(b1-3)GlcNAc(b1-2)Man(a1-6)]Man(b1-4)GlcNAc(b1-4)GlcNAc
# How it was run: as §1
# [14] = target: Fuc(a1-2)[GalNAc(a1-3)]Gal(b1-3)GlcNAc(b1-2)Man(a1-3)[Fuc(a1-2)[GalNAc(a1-3)]Gal(b1-3)GlcNAc(b1-2)Man(a1-6)]Man(b1-4)GlcNAc(b1-4)[Fuc(a1-6)]GlcNAc
# How it was run: as §1
# [15] = target: Fuc(a1-2)[GalNAc(a1-3)]Gal(b1-3)GlcNAc(b1-3)GalNAc
# How it was run: as §1
# [16] = target: Fuc(a1-2)[GalNAc(a1-3)]Gal(b1-3)GlcNAc(b1-6)GalNAc
# How it was run: as §1
# [17] = target: Fuc(a1-2)[GalNAc(a1-3)]Gal(b1-4)Glc
# How it was run: as §1
# [18] = target: Fuc(a1-2)[GalNAc(a1-3)]Gal(b1-4)GlcNAc
# How it was run: as §1
# [19] = target: Fuc(a1-2)[GalNAc(a1-3)]Gal(b1-4)GlcNAc(b1-2)Man
# How it was run: as §1
# [20] = target: Fuc(a1-2)[GalNAc(a1-3)]Gal(b1-4)GlcNAc(b1-2)Man(a1-3)[Fuc(a1-2)[GalNAc(a1-3)]Gal(b1-4)GlcNAc(b1-2)Man(a1-6)]Man(b1-4)GlcNAc(b1-4)GlcNAc
# How it was run: as §1
# [21] = target: Fuc(a1-2)[GalNAc(a1-3)]Gal(b1-4)GlcNAc(b1-2)Man(a1-3)[Fuc(a1-2)[GalNAc(a1-3)]Gal(b1-4)GlcNAc(b1-2)Man(a1-6)]Man(b1-4)GlcNAc(b1-4)[Fuc(a1-6)]GlcNAc
# How it was run: as §1
# [22] = target: Fuc(a1-2)[GalNAc(a1-3)]Gal(b1-4)GlcNAc(b1-3)Gal(b1-4)GlcNAc
# How it was run: as §1
# [23] = target: Fuc(a1-2)[GalNAc(a1-3)]Gal(b1-4)GlcNAc(b1-3)Gal(b1-4)GlcNAc(b1-3)Gal(b1-4)GlcNAc
# How it was run: as §1
# [24] = target: Fuc(a1-2)[GalNAc(a1-3)]Gal(b1-4)GlcNAc(b1-3)GalNAc
# How it was run: as §1
# [25] = target: Fuc(a1-2)[GalNAc(a1-3)]Gal(b1-4)GlcNAc(b1-3)[Fuc(a1-2)[GalNAc(a1-3)]Gal(b1-4)GlcNAc(b1-6)]GalNAc
# How it was run: as §1
# [26] = target: Fuc(a1-2)[GalNAc(a1-3)]Gal(b1-4)GlcNAc(b1-6)GalNAc
# How it was run: as §1
# [27] = target: Fuc(a1-2)[GalNAc(a1-3)]Gal(b1-4)[Fuc(a1-3)]GlcNAc
# How it was run: as §1
# [28] = target: Fuc(a1-2)[GalNAc(a1-3)]Gal(b1-4)[Fuc(a1-3)]GlcNAc(b1-3)GalNAc
# How it was run: as §1
# [29] = target: Fuc(a1-2)[GalNAc(a1-4)]Gal(b1-4)GlcNAc
# How it was run: as §1
# [30] = target: Fuc(a1-2)[GalNAc(b1-3)]Gal
# How it was run: as §1
binder,measurement,setting,value
B1,glycan array binding signal (z-score),[1],-0.622
same,glycan array binding signal (z-score),[2],-0.585
same,glycan array binding signal (z-score),[3],0.013
same,glycan array binding signal (z-score),[4],-0.168
same,glycan array binding signal (z-score),[5],-0.454
same,glycan array binding signal (z-score),[6],-0.467
same,glycan array binding signal (z-score),[7],1.42
same,glycan array binding signal (z-score),[8],-0.212
same,glycan array binding signal (z-score),[9],-0.43
same,glycan array binding signal (z-score),[10],-0.108
same,glycan array binding signal (z-score),[11],-0.583
same,glycan array binding signal (z-score),[12],0.367
same,glycan array binding signal (z-score),[13],-0.253
same,glycan array binding signal (z-score),[14],-0.383
same,glycan array binding signal (z-score),[15],4.18
same,glycan array binding signal (z-score),[16],0.067
same,glycan array binding signal (z-score),[17],-0.862
same,glycan array binding signal (z-score),[18],-0.168
same,glycan array binding signal (z-score),[19],-0.804
same,glycan array binding signal (z-score),[20],0.062
same,glycan array binding signal (z-score),[21],1.64
same,glycan array binding signal (z-score),[22],0.253
same,glycan array binding signal (z-score),[23],1.99
same,glycan array binding signal (z-score),[24],-0.523
same,glycan array binding signal (z-score),[25],-0.193
same,glycan array binding signal (z-score),[26],-0.657
same,glycan array binding signal (z-score),[27],-0.227
same,glycan array binding signal (z-score),[28],0.44
same,glycan array binding signal (z-score),[29],0.068
same,glycan array binding signal (z-score),[30],-0.119
